The values that follow come from PubChem BioAssay AID504444 (National Center for Advancing Translational Sciences (NCATS), 2011).

The whole screen tested about 360,000 compounds, of which about 7,500 (2.1%) were called active. About 20% were inconclusive and are not listed. The call rests on the fitted dose curve; in most records, active means well fitted inhibition curve with a large enough effect; inconclusive means small, poorly fitted or top-dose-only effect, or effect the other way; inactive means flat fitted curve, though single readings scatter. Only a part is listed here, and it is no random draw. The source holds several records for some structures; these can differ, active in one and inactive in another.
On the % scale 0 is the no-effect control and ±100 the full control effect; potency means the concentration at half of the fitted maximal effect.

The nature of the assay: Nrf2 qHTS screen for inhibitors. Further: nearly all actives have a fitted effect of over 60% in size. Conditions: A549 ARE-Fluc reporter, luciferase luminescence, 18-24 h; series mostly up to 46 µM; activity change, negative = inhibition: at the top concentration. The gist of the method:
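In this cell-based qHTS, ARE-driven firefly luciferase in A549 cells reports Nrf2 activity; the luminescent signal after BugLite lysis is the measured value, with a prior CellTiter-Fluor read for cell health.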
Take `Cc1ccc(N2CCN(S(=O)(=O)c3ccc(-n4cnnn4)cc3)CC2)c(C)c1`: the “activity change, negative = inhibition” value is inactive: -2.97%.

Regarding `O=C(C1=C[C@@H](c2ccc(C(F)(F)F)cc2)C[C@@H](OCc2ccc(CO)cc2)O1)N1CCN(Cc2ccccc2)CC1`, the “activity change, negative = inhibition” value is inactive: -26.6%.

Turning to `C/C(Cl)=C/Cn1c(N2CCCC2)nc2c1c(=O)n(C)c(=O)n2C`, the “activity change, negative = inhibition” value was inactive: -16.7%.

As to `CC1CCCN(CCCNC(=O)c2cc3c(Cl)nc4ccccc4c3s2)C1` (stereo unspecified), the “activity change, negative = inhibition” value was inactive: 8.39%.

`CCc1ccc(CNC(=O)C2CCN(c3nnc(C)c4c(C)n(-c5ccc(C)cc5)nc34)CC2)cc1`: the “activity change, negative = inhibition” value is inactive: 40.3%.

Turning to `C[C@@H]1NC(=O)[C@@]2(C)[C@@H](c3ccccc3)[C@H]3COc4ccccc4[C@@H]3N2C1=O`, the “activity change, negative = inhibition” value is inactive: 2.61%.

In the case of `O=C(COc1ccc([N+](=O)[O-])cc1)N1CCC(c2nc3ccccc3s2)CC1`, the Potency was active: 14.6 µM.

Take `O=C(Nc1nnc(S(=O)(=O)N2CCCCCC2)s1)c1ccccc1F`: the “activity change, negative = inhibition” value was inactive: 12.8%.

In the case of `Cn1nc(C(=O)N2CCN(c3ccc(Cl)cc3)CC2)c2c1-c1ccccc1S(=O)(=O)C2`, the “activity change, negative = inhibition” value is inactive: 10.9%.

On to `O=C(CCCN1C(=O)/C(=C/c2ccccc2Cl)SC1=S)NNC(=O)c1ccc(Cl)cc1`, for which the Potency was active: 8.2 µM.

In the case of `COC(=O)N1C(=O)[C@](c2ccccc2)(C(C)C)N1C(=O)OC`, the “activity change, negative = inhibition” value was inactive: -16.5%.

For the molecule `CCn1cnc2c(Nc3cc(F)cc(F)c3)nc(C#N)nc21`, the “activity change, negative = inhibition” value was inactive: 5.56%.

As to `O=C(Cn1cc(C(=O)c2ccco2)c2ccccc21)Nc1ccccc1`, the “activity change, negative = inhibition” value is inactive: -22.8%.

For the molecule `COc1cccc(-n2c(C)nc3cc(C(=O)O)ccc32)c1`, the “activity change, negative = inhibition” value was inactive: 3.59%.

Take `Cc1c(NC(=O)c2cc(-c3ccc(Br)cc3)on2)c(=O)n(-c2ccccc2)n1C`: the “activity change, negative = inhibition” value was inactive: -10.5%.

In the case of `Cc1oc(-c2ccc(C(=O)Nc3cccc(C(F)(F)F)c3)cc2)nc1CSc1ccccc1`, the Potency is active: 5.8 µM.

On to `N#Cc1nc(NCC(F)F)c2ncn(-c3cccc(Cl)c3)c2n1`, for which the Potency is active: 20.6 µM.

Regarding `O=C(COc1ccccc1)N[C@@H]1c2ccccc2CC[C@@H]1OCc1ccccc1`, the “activity change, negative = inhibition” value is inactive: -13.3%.

On to `CN(CC(=O)NCc1ccc(Cl)cc1)S(=O)(=O)c1ccc2[nH]c3c(c2c1)CCCC3`, for which the Potency was active: 16.4 µM.

Take `CCN(c1cccc(C)c1)S(=O)(=O)c1ccc(-n2cccn2)cc1`: the “activity change, negative = inhibition” value was inactive: -11.5%.

Regarding `Cc1c(C(=O)N2CCCCC2)c(S(=O)(=O)NCc2ccc(N(C)C)cc2)c(C)n1C`, the “activity change, negative = inhibition” value was inactive: -8.83%.

Regarding `Cc1cc(=O)n(C(C)C(=O)N2CCCc3ccccc32)c2c1c(C)nn2-c1ccccc1` (stereo unspecified), the Potency was active: 18.4 µM.

As to `Cc1ccc2[nH]cc(S(=O)(=O)c3ccc(C)c(C)c3)c(=O)c2c1`, the “activity change, negative = inhibition” value is inactive: 3.16%.

As to `O=C(COc1ccc(Cl)cc1)N1CCN(Cc2ccc3c(c2)OCO3)CC1`, the Potency result is “inactive”.

On to `O=C(Nc1scc(-c2ccc(Br)cc2)c1C(=O)O)c1ccccc1F`, for which the Potency was active: 10.3 µM.

With `CCOc1ccc(CNC(=O)CCC(=O)N2Cc3ccccc3Oc3ncccc32)cc1`, the “activity change, negative = inhibition” value was inactive: -3.87%.

In the case of `O=C(CSc1nc(-c2ccco2)cc(C(F)(F)F)n1)Nc1ccc(C(=O)N2CCCCC2)cc1`, the Potency is active: 23.1 µM.

Consider `Cc1ccc(Cl)cc1N1CCN(C(=O)CCS(=O)(=O)c2ccc3c(c2)NC(=O)CO3)CC1`, for which the Potency was active: 16.4 µM.

For the molecule `Cc1cc(C(=O)Nc2c(C)cccc2C)n(-c2ccccc2)n1`, the “activity change, negative = inhibition” value is inactive: 20.7%.

`CC(=O)Nc1ccc(S(=O)(=O)NCCSCc2ccc(Cl)cc2Cl)cc1`: the Potency is active: 9.2 µM.

With `O=C(CCCN1C(=O)/C(=C/c2cccs2)SC1=S)NNC(=O)c1cccnc1`, the “activity change, negative = inhibition” value is inactive: -12.5%.

Turning to `COc1ccc(/C=N/Nc2nc(C)cc(-c3ccccc3)n2)cc1OC`, the Potency was active: 23.1 µM.

As to `CN(C)c1nc(C#N)nc(N2CCOCC2)n1`, the “activity change, negative = inhibition” value is inactive: -1.2%.

As for `COc1cc(C(CC(=O)N2CCCC2)c2c(OC)cc(OC)c3c(-c4ccccc4)cc(=O)oc23)cc(OC)c1OC` (stereo unspecified), the “activity change, negative = inhibition” value is inactive: -7.07%.

Take `O=C(NNC(=O)c1nc2ccccc2[nH]1)OCc1ccccc1`: the “activity change, negative = inhibition” value was inactive: 12%.

For `CC(C)(C)Nc1nc(-c2ccccn2)nc2ccccc12`, the Potency is active: 20.6 µM.

For `COc1ccc(Cl)cc1NC(=O)CCc1nc(-c2ccccc2F)no1`, the “activity change, negative = inhibition” value was inactive: -18.1%.

Take `O=C1C2C3C=CC(C3)C2C(=O)N1CCN1CCN(Cc2ccc([N+](=O)[O-])cc2)CC1` (stereo unspecified): the “activity change, negative = inhibition” value was inactive: -18.5%.

As for `CCOC(=O)CNc1nc(Oc2ccc(=O)n(C)n2)nc(N(CC)CC)n1`, the “activity change, negative = inhibition” value was inactive: -27.4%.

Regarding `O=C(COC(=O)Cc1ccc(S(=O)(=O)N2CCCCC2)s1)Nc1ccc2c(c1)OCO2`, the “activity change, negative = inhibition” value is inactive: 8.49%.

On to `CCOc1ccccc1CNC(=O)C1CCN(c2nnc(C)c3c(C)n(-c4ccc(C)cc4)nc23)CC1`, for which the “activity change, negative = inhibition” value was inactive: 20.9%.

Turning to `O=C1c2ccccc2C(=O)N1Cc1ccccn1`, the “activity change, negative = inhibition” value was inactive: 6.15%.

`Cc1ccccc1SCC(=O)N1CCN(c2ccc(C(F)(F)F)cn2)CC1`: the Potency is active: 3.66 µM.

Consider `Cc1ncc(CO)c2c1Oc1nc(-c3ccccc3)nc(SCC(=O)N3CCCCC3)c1C2`, for which the “activity change, negative = inhibition” value was inactive: 3.75%.

Turning to `CCCCn1c(NC(=O)c2ccccc2Cl)c(C#N)c2nc3ccccc3nc21`, the Potency is active: 13 µM.

Take `CN(Cc1ccccc1)C(=O)c1ccc(NC(=O)Cc2ccc(NC(=O)C3CCCN(C(=O)CCc4ccccc4)C3)cc2)cc1` (stereo unspecified): the Potency is active: 2.59 µM.

Turning to `Cc1cc(C)n2nc(SCC(=O)c3cc(C)n(CC4CCCO4)c3C)nc2n1` (stereo unspecified), the Potency was active: 10.3 µM.

As for `CCN(CC)CCNC(=O)c1cc2c(-c3cccc(OC)c3)nn(C)c2s1`, the “activity change, negative = inhibition” value is inactive: 26.2%.

In the case of `Cc1nn(C(C)C(=O)NCc2ccco2)c(=O)c2nn(-c3ccccc3)c(C)c12` (stereo unspecified), the “activity change, negative = inhibition” value was inactive: 10.9%.

In the case of `Cc1ccc(Cl)cc1N1CCN(C(=O)CN(C2CCCCC2)S(C)(=O)=O)CC1`, the Potency was active: 18.4 µM.

For `CC(=O)c1c(C)[nH]c(C(=O)OCc2ccc(F)cc2Cl)c1C`, the Potency is active: 13 µM.

With `O=C(NCc1ccccc1)C1=C[C@@H](c2ccccc2)C[C@@H](OCc2ccc(CO)cc2)O1`, the “activity change, negative = inhibition” value was inactive: -18.6%.

As to `CC1Cc2cc(S(=O)(=O)CCC(=O)Nc3ccc(OC(F)(F)F)cc3)ccc2N1C(=O)C1CC1` (stereo unspecified), the Potency was active: 23.1 µM.

For `O=C(Nc1nnc(S(=O)(=O)N2CCOCC2)s1)c1cccc(F)c1`, the “activity change, negative = inhibition” value was inactive: 22.4%.

On to `Cc1ccc(C)c(N2CCN(C(=O)CCCn3ncn4c(cc5occc54)c3=O)CC2)c1`, for which the “activity change, negative = inhibition” value was inactive: -4.99%.

In the case of `COCCCNC(=O)CSc1nc(-c2cccc(F)c2)[nH]c1-c1ccccc1`, the Potency was active: 14.6 µM.
